Values of other authors as cited in patent US8816078B2, “Acidic gas removal by aqueous amine solvents” (Board of Regents, The University of Texas System, priority 2010, dated 2014).

Settings: 150° C.; 2 weeks; α 0.4 moles CO2 per mole alkalinity (Davis, 2009); cited from earlier work

## NCCO [MEA, monoethanolamine]
  loss of the initial amine: 67%
